# In publication PMC4336329 (PLoS ONE, 2015):
# The whole screen tested about 310,000 compounds, of which about 2,200 (0.71%) showed an effect of 50% or more. Effects have a minus sign here. The list shows a part of the results.
# Target: human ether-à-go-go-related gene (hERG) potassium channel (human, UniProt Q12809)
# Experiment: primary screen, population patch clamp on CHO cells stably expressing hERG
# Sequence of human ether-à-go-go-related gene (hERG) potassium channel (Q12809 whole entry, looked up): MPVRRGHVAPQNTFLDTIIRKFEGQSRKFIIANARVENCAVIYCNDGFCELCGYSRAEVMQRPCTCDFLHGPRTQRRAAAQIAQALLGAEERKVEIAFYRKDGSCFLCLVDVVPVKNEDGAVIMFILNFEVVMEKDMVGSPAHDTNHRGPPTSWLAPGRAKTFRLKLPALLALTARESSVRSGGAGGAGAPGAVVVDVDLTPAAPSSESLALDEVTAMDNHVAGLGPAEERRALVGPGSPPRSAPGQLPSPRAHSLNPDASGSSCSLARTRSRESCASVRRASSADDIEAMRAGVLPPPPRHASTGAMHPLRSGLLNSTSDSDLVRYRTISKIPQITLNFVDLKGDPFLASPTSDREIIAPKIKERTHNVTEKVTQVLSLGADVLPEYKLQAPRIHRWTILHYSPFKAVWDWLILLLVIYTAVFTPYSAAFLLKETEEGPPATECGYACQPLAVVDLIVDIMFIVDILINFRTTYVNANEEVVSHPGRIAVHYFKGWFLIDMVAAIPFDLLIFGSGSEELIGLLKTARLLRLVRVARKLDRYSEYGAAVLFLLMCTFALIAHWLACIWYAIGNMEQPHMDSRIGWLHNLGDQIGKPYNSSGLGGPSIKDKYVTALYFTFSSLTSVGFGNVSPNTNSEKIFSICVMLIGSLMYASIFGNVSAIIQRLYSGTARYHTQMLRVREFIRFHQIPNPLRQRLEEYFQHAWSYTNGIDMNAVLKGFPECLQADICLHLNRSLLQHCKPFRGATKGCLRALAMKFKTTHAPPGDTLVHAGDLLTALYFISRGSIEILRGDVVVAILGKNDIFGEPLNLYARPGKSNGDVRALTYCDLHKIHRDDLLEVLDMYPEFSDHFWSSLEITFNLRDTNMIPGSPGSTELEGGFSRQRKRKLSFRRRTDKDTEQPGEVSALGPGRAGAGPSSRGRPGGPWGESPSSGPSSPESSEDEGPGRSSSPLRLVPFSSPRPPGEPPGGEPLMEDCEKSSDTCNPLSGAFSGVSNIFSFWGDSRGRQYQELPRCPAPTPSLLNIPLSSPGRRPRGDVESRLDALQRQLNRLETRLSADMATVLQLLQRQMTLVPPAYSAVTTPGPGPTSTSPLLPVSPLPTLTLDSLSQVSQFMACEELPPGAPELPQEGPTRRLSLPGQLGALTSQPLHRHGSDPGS
row,SMILES,"hERG current change (%, negative = inhibition) at 1uM [%]"
1,O=C(CC1SC(=Nc2ccccc2)N(Cc2ccccn2)C1=O)Nc1ccc(Br)cc1 (stereo not drawn),18.7
2,Cc1ccccc1NC(=O)Cc1ccccc1,15.3
3,CCC(=O)c1cc(F)c(N2CCN(C(=O)c3ccco3)CC2)cc1C,5.47
4,Cc1ccc(NC(=S)N2CCN(S(=O)(=O)c3ccccc3)CC2)cc1C,13.5
5,CC(O)[C@H]1CN=C(N)N1CCc1cc(C(F)(F)F)cc(C(F)(F)F)c1 (stereo partly drawn),15.3
6,COc1cccc(/C=C/C2=CC(C)(C)NC(=S)N2)c1,16.5
7,O=S(=O)(c1ccc(N2CCN(CCO)CC2)nc1)N1CCCCC1,8.73
8,Cc1nnc(SCCn2c(N3CCN(C)CC3)nc3c2c(=O)n(C)c(=O)n3C)s1,6.36
9,Cc1nnc(NC(=O)Cc2cccs2)s1,1.69
10,CC(C)Cc1nnc(NS(=O)(=O)Cc2ccccc2)s1,7.48
11,O=c1c(C/C=C/c2ccccc2)c(O)nc2n1CCCS2,-0.739
12,O=C(COC(=O)c1cccs1)c1ccc2c(c1)OCCO2,1.98
13,CCN(CC)C(=O)c1cc2c(=O)n3ccccc3nc2s1,-1.32
14,Cc1ccc(-c2csc(NCCc3nc4cc(Cl)c(Cl)cc4n3CCCO)n2)cc1,9.1
15,Nc1ccc(NC(=O)c2cccs2)c(Cl)c1,12.3
16,Cc1cc(NC(=O)CN2CCCCC2)n(-c2ccccc2)n1,12.1
17,CCOC(=O)c1cc(NC(=O)CSc2nnc(CN3CCOCC3)n2C)ccc1Cl,0.655
18,CCO[C@H]1OC(C(=O)O)=C[C@@H](c2coc3ccccc3c2=O)[C@@H]1CCCO,10.3
19,O=C(O)/C=C\C(=O)Nc1ccccc1C#Cc1ccc(Br)cc1,14.7

row,SMILES,"hERG current change (%, negative = inhibition) at 1uM [%]"
1,CC(=O)Nc1cccc(C(=O)N/N=C/c2cccnc2)c1,6.56
2,CCN(CC)c1cc(NCCO)c([N+](=O)[O-])c2nonc12,0.923
3,O=C(NC(Cc1ccccc1)C(=O)N1CCc2ccccc2C1)c1ccccc1 (stereo not drawn),15.9
4,C=CCN1C(=O)C(Cc2ccc(OC)cc2)SC1=Nc1ccc(C(=O)O)cc1 (stereo not drawn),10.1
5,Cc1ccc(Nc2ccc(N)cc2S(=O)(=O)O)cc1,16.2
6,COc1ccc(N(C(=O)Cn2nnc(-c3ccc(F)cc3)n2)C(C)C(=O)NC2CCCC2)cc1 (stereo not drawn),10.9
7,Cc1ccc(CNC(=O)C2CCN(S(=O)(=O)c3cnc[nH]3)CC2)cc1,2.38
8,C#CCn1c(=NC(=O)c2cc(Cl)sc2Cl)sc2cc(S(N)(=O)=O)ccc21,8.95
9,O=S(=O)(Nc1nc2ccccc2nc1N1CCc2ccccc2C1)c1ccc(Br)cc1,4.98
10,Cc1ccc(S(=O)(=O)N(C)c2ccc(OCc3cccc(C)c3)cc2)cc1,16.4
11,CCOC(=O)c1c(C)[nH]c(C(=O)CN2C(=O)NC(CC)(c3ccccc3)C2=O)c1C (stereo not drawn),12.7
12,CCCn1c2c(c(O)c(C(=O)Nc3ccc(OC)cc3)c1=O)CCCC2,3.2
13,Nc1c(NCc2ccccc2)c(=O)c1=O,10
14,CC(C)OC(=O)CSc1nnc(CNc2ccc(Cl)cc2)n1C,9.83
15,CCCSc1nc2c(cnn2-c2ccc(C)c(C)c2)c(=O)[nH]1,14.8
16,O=C(COC(=O)Cc1ccc(Cl)cc1)Nc1ccc2[nH]c(=O)[nH]c2c1,9.12
17,COc1cc(CN2CCN(C(=O)CC(C)C)CC2)cc(OC)c1O.O=C(O)C(=O)O,4.82
18,O=C(CSc1nncs1)Nc1nnc(-c2ccccc2)o1,8.11
19,Cc1ccc(CN(C)C(=O)CSc2nnc3n2CCCCC3)c(C)c1,10.1

row,SMILES,"hERG current change (%, negative = inhibition) at 1uM [%]"
1,CCOc1ccc(N/C=C\C(=O)c2ccc3c(c2)OCO3)cc1,15.8
2,Cc1ccc(-c2ccc(C(=O)NCCCNC(=O)c3cnccn3)o2)cc1Cl,18.8
3,O=C(Cc1c[nH]c2ccccc12)Nc1nnc(C2CC2)s1,2.12
4,Cc1ccc(C)c2[nH]c(=O)c(CN(Cc3nnnn3C3CCCCC3)CC3CCCO3)cc12 (stereo not drawn),5.73
5,COc1ccc(/C=C/C(=O)NC(=S)N2C[C@H]3C[C@H](C2)c2cccc(=O)n2C3)cc1OC,6.36
6,CCCN(CCC)CCCNC(=O)C1c2cc(OC)c(OC)cc2C(=O)N(C)C1c1cccs1 (stereo not drawn),14.8
7,O=C(NC(NNc1ccc([N+](=O)[O-])cc1)(C(F)(F)F)C(F)(F)F)c1ccc(Cl)cc1,5.38
8,Nc1c(N(CCC2=CCCCC2)C(=O)Cc2ccc(F)cc2)c(=O)[nH]c(=O)n1Cc1ccccc1,-3.84
9,Cc1cc2[nH]cnc2c([N+](=O)[O-])c1C,-10.1
10,CCC(=O)N1c2ccc(S(=O)(=O)N3CCOCC3)cc2CC1C (stereo not drawn),13.5
11,CN(Cc1ccccc1)C(=O)COC(=O)C1CCN(S(=O)(=O)c2ccc3c(c2)OCCO3)CC1,8.54
12,CCOC(=O)C(NC(=O)C1C(C)N1S(=O)(=O)c1ccc(C)cc1)C(=O)OCC (stereo not drawn),-4.77
13,O=C(O)c1ccc(N=NN2CCCCCC2)cc1,18.4
14,COc1ccc(CNS(=O)(=O)CCNC(=O)c2cccc(OC)c2)cc1,-39.1
15,CC(=O)NC(Cc1ccc(F)cc1)C(=O)O (stereo not drawn),-8.68
16,CC(C)CNC(=O)CN1C(=O)NC2(CCc3ccccc32)C1=O (stereo not drawn),11.6
17,O=C(COC(=O)c1ccc(O)cc1)c1ccc(S(=O)(=O)N2CCCCC2)cc1,10.5
18,CCOC(=O)C1=C(COC(=O)CSc2ccc(C)cc2)NC(=O)NC1C (stereo not drawn),1.96
19,CCOC(=O)c1c(C)[nH]c(C(=O)NCc2ccccn2)c1C,6.33
